Source: paper PMC7663100 (2020)

How the values were obtained:
[1] = molecular target: T1, MINERVA^FL (full length human MINERVA, residues Met1–Phe746), recombinant with N-terminal His6-tag (human, UniProt Q96TA1 1-746); assay: SPR
T1 chain: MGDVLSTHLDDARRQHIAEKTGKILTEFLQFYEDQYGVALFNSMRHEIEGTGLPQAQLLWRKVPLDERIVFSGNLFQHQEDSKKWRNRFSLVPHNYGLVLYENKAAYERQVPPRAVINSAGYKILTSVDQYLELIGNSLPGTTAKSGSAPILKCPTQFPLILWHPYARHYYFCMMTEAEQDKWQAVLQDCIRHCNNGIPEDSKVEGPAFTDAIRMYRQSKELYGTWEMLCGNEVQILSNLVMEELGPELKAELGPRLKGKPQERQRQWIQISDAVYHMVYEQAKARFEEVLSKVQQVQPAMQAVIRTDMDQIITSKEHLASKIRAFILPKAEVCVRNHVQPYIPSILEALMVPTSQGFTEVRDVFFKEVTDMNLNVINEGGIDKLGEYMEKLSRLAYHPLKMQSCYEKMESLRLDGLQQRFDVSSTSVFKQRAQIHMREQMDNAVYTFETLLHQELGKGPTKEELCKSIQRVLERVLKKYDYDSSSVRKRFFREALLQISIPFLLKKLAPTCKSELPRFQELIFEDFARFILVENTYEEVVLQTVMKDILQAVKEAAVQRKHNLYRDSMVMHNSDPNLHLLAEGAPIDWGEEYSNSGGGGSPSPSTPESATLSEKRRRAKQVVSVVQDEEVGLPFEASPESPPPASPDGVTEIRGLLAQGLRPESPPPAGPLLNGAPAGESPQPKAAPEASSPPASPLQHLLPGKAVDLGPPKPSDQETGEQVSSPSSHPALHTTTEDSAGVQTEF

[2] = molecular target: T1, MINERVA^FL (full length human MINERVA, …); assay: SPR

koff [1]: 0.478 s⁻¹
Kd [2]: 1770 nM
B1: Keap1^[…] (N- and C-terminally truncated Keap1, […], containing the Kelch domain) (domain or fragment)
chain: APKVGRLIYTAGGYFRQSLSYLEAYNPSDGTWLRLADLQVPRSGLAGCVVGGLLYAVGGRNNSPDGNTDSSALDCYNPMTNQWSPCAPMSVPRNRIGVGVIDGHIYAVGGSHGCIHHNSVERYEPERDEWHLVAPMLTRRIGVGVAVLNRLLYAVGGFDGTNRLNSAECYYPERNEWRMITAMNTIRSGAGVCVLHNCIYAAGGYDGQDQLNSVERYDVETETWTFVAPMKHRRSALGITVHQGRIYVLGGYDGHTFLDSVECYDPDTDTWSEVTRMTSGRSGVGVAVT
